Measurements taken from the supplement of paper PMC11417369.
± gives the standard deviation of the averaged measurements. This is one part of the list.

Each sequence was assayed on PfAP2-G AP2 domain (GST-tagged) (assay: gcPBM binding intensity (ln(normalized median fluorescence intensity)); higher = stronger DNA binding).
How it was run: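 GST-tagged P. falciparum DNA-binding domains produced in E. coli were incubated for 1 h on an Agilent 4 × 180k array of primer-extended double-stranded 36-bp intergenic genomic probes with negative controls. Binding intensity is the highest Masliner-normalised natural-log median intensity across replicate spots of either probe orientation, with bound protein detected by Alexa488 anti-GST antibody at 488 nm.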

Sequence | gcPBM binding intensity (ln)
TCCCTAGTATACCTTAGTACATATATTATTTTGCAC [XGTACX_site2174] | 10.9 ± 0.57
ATAAAAAACTCAGAGCGTACATAATTTTTTCTATTT [XGTACX_site2803] | 11.3 ± 0.78
TAACCATACATACATACACACACACCCACATATATA [CACACA_site8951] | 10.1 ± 0.18
TATATATTCAAATGTGCATGTAAAAAAAAAAAAAAG [TGCATGCA_site126] | 10.1 ± 0.3
AAGTTGGAAAGGTTATGTACTTATTTTTTAAAATAA [XGTACX_site204] | 11.6 ± 1.1
TATATAATATAATTGACATGCAACCATTTTCGTGAA [TGCATGCA_site458] | 10.1 ± 0.2
TCATTCATATGTTACACACACACACGCACATAAAAA [CACACA_site7514] | 10.5 ± 0.35
CAGGCGTGAAATATACGTACACACATTATTTATATT [XGTACX_site5337] | 11.8 ± 0.94
TTTTGTTACGGCAAGGAAGTTAAGCATAAATGAATG [GTGCAC_negctrl_site173] | 10.1 ± 0.16
ATATAAATTATTTACACACAAACATTTATACTTTTA [CACACA_site3448] | 9.96
TAATAATAGTCTAATACATGCATCGATAACGGAACT [TGCATGCA_site98] | 9.79 ± 0.042
ATGTTAATAACTTGTGGTACTGTTATAATTTAGTAA [XGTACX_site2114] | 10.9 ± 0.54
ATATTTTTTGCTATTACACACAAGGGATTATTATTT [CACACA_site7776] | 10.2 ± 0.23
AAGAAAAAAAATATATATGTATATATTATTTTAACA [TGCATGCA_negctrl_site534] | 9.54 ± 0.27
ATATATCTACTGTGTTGTACTGTTAATATTTGAATA [XGTACX_site1931] | 10.9 ± 0.63
ATATAAGTGTATCTAACACACAAATATGTAAAAATG [CACACA_site7006] | 10.2 ± 0.23
TATATACACATATATACACACACATATATATATATA [CACACA_site9127] | 10.2 ± 0.2
TGAAAGAATTAATTTTGTACATATAAAAATTTTATT [XGTACX_site8500] | 10.7 ± 0.47
AAAATTACTATATGAACACACATGATTAGATATATG [CACACA_site3083] | 9.98 ± 0.014

Sequence | gcPBM binding intensity (ln)
TATATATATATATACACACACACCCTAAAAATATAT [CACACA_site1611] | 10.2 ± 0.22
AATAAATAAATAATATAATGAAATTATAAAATGTGG [TGCATGCA_negctrl_site385] | 9.71 ± 0.16
AAATGAAATTTGTATACACACAAATATATTTATATA [CACACA_site6525] | 9.95 ± 0.085
TATTTGTGCCAAAAATGAAAAAGTTTGTATAAAACC [CACACA_negctrl_site1406] | 10.1 ± 0.17
TTTTTATTTTTAAAGGCACACACATTTTTATTTTTA [CACACA_site8624] | 10.2 ± 0.26
GATGGATTTATTTAAAGTACATATTTAAAAAACTGT [XGTACX_site7567] | 11.3 ± 0.88
TTTCTCCCATTTTTTAGTACACAAAATATATATGTA [XGTACX_site7218] | 11.7 ± 1.1
AAAGTAAAAGAAAGCACACACACATGTATATATGTA [CACACA_site3857] | 9.85 ± 0.2
AATGATCATAAATACACACACACAAAAAAAAAAAAA [CACACA_site6072] | 9.97 ± 0.44
TATTAAAAAAATGTATGTACATATATAAATTTTTTT [XGTACX_site1094] | 11.2 ± 0.8
AACAACAATTTCGTCATACACACATTCAGAATATAT [CACACA_site2371] | 10.1 ± 0.11
AAAAAAAAAAAATATACACACACATATATATATATA [CACACA_site9123] | 9.93 ± 0.48
AATTTTTTTTTAATCATGCACACTGTTAAAAGAATA [CACACA_site1240] | 10.2 ± 0.33
TTTTAAAAATTAAGTGCATGTCCTTATAAAAAAAAA [TGCATGCA_site845] | 10.7 ± 0.55
TTCATATATTTAGGACGTACTTTTATATTACTATAT [XGTACX_site6456] | 11.2 ± 0.73
TTTATATCATTACAAGTGCATATCATCATAAATTCT [GTGCAC_site9878] | 9.92 ± 0.099
TCTTGATTATATAGTACTACACATTATAAAAAAATT [XGTACX_site2465] | 11.3 ± 0.75
ATATGGAATAATACGCGTACACACATATATATATTA [XGTACX_site307] | 11.7 ± 1
TATATATAAATATATGTGCACTTTTTATATTTATAT | 10.3 ± 0.38

Sequence | gcPBM binding intensity (ln)
TATAATGAGGATGATAGTACGTATTAGTATAAAAAA [XGTACX_site6623] | 11.1 ± 0.6
TTTATATATATTTATACACACAAACATAATACTACT [CACACA_site5161] | 10.3 ± 0.25
TTTTTAATTTTATATACACACATAAAATATATGAAG [CACACA_site3145] | 10 ± 0.28
ATTTTTTTTTTTTTTTTGGGGGGGTATACTTTTAAA [CACACA_negctrl_site1020] | 11.9 ± 0.77
TTCCTTTTTTTTTATTGTACAAAAATATCAAAAAGG [XGTACX_site8505] | 11 ± 0.58
AATTATATAACAAATTGTACGAATGAAAATATTATT [XGTACX_site4237] | 10.7 ± 0.38
ATAGAATAAATTTTGTCATTTATTCCTTATATATAA [GTGCAC_negctrl_site227] | 9.85 ± 0.085
TAAAAATAGGAATACGCACACGATGATTAATTTATA [CACACA_site1835] | 10.3 ± 0.22
ATTAAAGGAAGCAAAACATGCAACAGCAATATTGCA [TGCATGCA_site452] | 9.665 ± 0.007
TGTTATTATAACATTTTTTTCAAAATAGCTTTAGAA [CACACA_negctrl_site266] | 9.88 ± 0.26
ATAATACCCAAGCACACACACACACCGATATATATA [CACACA_site8344] | 10.4 ± 0.28
AATTTATAAGAATAAAGTACTAAAGATACAACTTTA [XGTACX_site7153] | 10.9 ± 0.63
AAAAAAAAAAAAAACACACAGAACAATATATAAATA [CACACA_site982] | 9.82 ± 0.15
AAAAAAAAATACAAAATAGCAATAAATACACAAACG [GTGCAC_negctrl_site707] | 10.2 ± 0.19
AAAAAAAAAAAAAAAACATGCACAAATTATAAGTGA [TGCATGCA_site378] | 10.2 ± 0.2
ACTACATAATACTATTCACACATTTTTTTTTTTTTT [CACACA_site5794] | 9.9 ± 0.18
ATATATTGGAGCACAACACACACAAGTATATATATG [CACACA_site8435] | 10.5 ± 0.26
TTTATTGAATAAAATGCACACGCATGCGTTATTTAT [CACACA_site9154] | 9.985 ± 0.035
